From the RNAGym collection of RNA variant scans (doi:10.1073/pnas.2313332121)
This sample is rich in variants without activity.

B1: TPR 5TU (parent)
chain: GGAUCUUCUCGAUCUAACAAAAAAGACAAAUCUGCCACAAAGCUUGAGAGCAUCUUCGGAUGCAGAGGCGGCAGCCUUCGGUGGCGCGAUAGCGCCAACGUUCUCAACUAUGACACGCAAAACGCGUGCUCCGUUGAAUGGAGUUUAUCAUG

Variants of: B1
Assay: polymerase ribozyme fitness, log enrichment relative to wild type (log ratio); higher = more active; in vitro selection for triplet polymerase activity
How it was run: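 Fitness compares each genotype's enrichment to that of the wild type on a logarithmic scale, averaging replicates with inverse-variance weights. The logarithm is base 2. Enrichment came from Illumina sequencing of input and output libraries after one triplicate round of in vitro selection, which included frozen incubation at −7 °C, of PCR-built, transcribed mutant libraries of each subunit of a heterodimeric triplet polymerase ribozyme. Only genotypes with ≥10 input reads and ≥1 read per output were kept.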

Q: Which “polymerase ribozyme fitness (log ratio)” value does the source give for A30U C36A U55A A60U G94C U102A C105G A106U here?
A: ≤ -4.2

Q: For A30U C38A C51A C75U C93A C95U, which “polymerase ribozyme fitness (log ratio)” value is on record?
A: ≤ -4.2

Q: For A30U C38G G50C C87G G117A, which “polymerase ribozyme fitness (log ratio)” value is on record?
A: ≤ -4.2

Q: Which “polymerase ribozyme fitness (log ratio)” value does the source give for A30U C38U C75U here?
A: ≤ -4.2

Q: Which “polymerase ribozyme fitness (log ratio)” value does the source give for A30U C38U C95A C123U U148A here?
A: ≤ -4.2

Q: With A30U C43A C54G C85A C125U G143A as the variant, how does the “polymerase ribozyme fitness (log ratio)” value read?
A: ≤ -4.2

Q: For A30U C43U G58A U77G C93G, which “polymerase ribozyme fitness (log ratio)” value is on record?
A: ≤ -4.2

Q: Which “polymerase ribozyme fitness (log ratio)” value does the source give for A30U C43U G74A C93G U104G G143A U151A here?
A: ≤ -4.2

Q: With A30U C43U U61A C75G U78G C96G U104G as the variant, how does the “polymerase ribozyme fitness (log ratio)” value read?
A: ≤ -4.2

Q: For A30U C51G G81C C85A C93A A110U G117A G133A, which “polymerase ribozyme fitness (log ratio)” value is on record?
A: ≤ -4.2

Q: With A30U C51G U56A C85A C93A G126A as the variant, how does the “polymerase ribozyme fitness (log ratio)” value read?
A: ≤ -4.2

Q: With A30U C51U A73U C95A C118A U139C as the variant, how does the “polymerase ribozyme fitness (log ratio)” value read?
A: ≤ -4.2

Q: Which “polymerase ribozyme fitness (log ratio)” value does the source give for A30U C51U U55A here?
A: ≤ -4.2

Q: For A30U C54A A97G U101G A142G, which “polymerase ribozyme fitness (log ratio)” value is on record?
A: ≤ -4.2

Q: For A30U C54A G83C G136C, which “polymerase ribozyme fitness (log ratio)” value is on record?
A: ≤ -4.2

Q: For A30U C54A U55G G86C C105A A119G G136U A142U, which “polymerase ribozyme fitness (log ratio)” value is on record?
A: ≤ -4.2

Q: For A30U C54U C85A G128C G140U G141A, which “polymerase ribozyme fitness (log ratio)” value is on record?
A: ≤ -4.2

Q: With A30U C54U C85U as the variant, how does the “polymerase ribozyme fitness (log ratio)” value read?
A: -3.87

Q: Which “polymerase ribozyme fitness (log ratio)” value does the source give for A30U C54U U77C G83A A119U U144A here?
A: ≤ -4.2

Q: For A30U C72A C87U A121G, which “polymerase ribozyme fitness (log ratio)” value is on record?
A: ≤ -4.2

Q: Which “polymerase ribozyme fitness (log ratio)” value does the source give for A30U C72G C93U A137C here?
A: ≤ -4.2

Q: With A30U C76A G88A U90C A98U C132U as the variant, how does the “polymerase ribozyme fitness (log ratio)” value read?
A: ≤ -4.2

Q: For A30U C76G G136C, which “polymerase ribozyme fitness (log ratio)” value is on record?
A: ≤ -4.2

Q: With A30U C85A C96A U101C as the variant, how does the “polymerase ribozyme fitness (log ratio)” value read?
A: ≤ -4.2

Q: For A30U C87G, which “polymerase ribozyme fitness (log ratio)” value is on record?
A: ≤ -4.2

Q: With A30U C87G U101G U146A C149G as the variant, how does the “polymerase ribozyme fitness (log ratio)” value read?
A: ≤ -4.2

Q: Which “polymerase ribozyme fitness (log ratio)” value does the source give for A30U C93A A121C A138G G141A G152U here?
A: ≤ -4.2

Q: With A30U C93U C95U A150U as the variant, how does the “polymerase ribozyme fitness (log ratio)” value read?
A: ≤ -4.2

Q: With A30U G34C A60G C95G A107U as the variant, how does the “polymerase ribozyme fitness (log ratio)” value read?
A: ≤ -4.2

Q: Which “polymerase ribozyme fitness (log ratio)” value does the source give for A30U G42A C43U A52G here?
A: ≤ -4.2

Q: With A30U G42A C76G as the variant, how does the “polymerase ribozyme fitness (log ratio)” value read?
A: ≤ -4.2

Q: Which “polymerase ribozyme fitness (log ratio)” value does the source give for A30U G42A U55G C69A G126U A142C here?
A: ≤ -4.2

Q: For A30U G42C U53A C76U C87A A98G, which “polymerase ribozyme fitness (log ratio)” value is on record?
A: ≤ -4.2

Q: With A30U G42C U55G G83C C87U A91C as the variant, how does the “polymerase ribozyme fitness (log ratio)” value read?
A: ≤ -4.2

Q: With A30U G46A A73G G83A A89G C105G A107U as the variant, how does the “polymerase ribozyme fitness (log ratio)” value read?
A: ≤ -4.2

Q: For A30U G46C A64G C75U G117U A121C A142U, which “polymerase ribozyme fitness (log ratio)” value is on record?
A: ≤ -4.2

Q: With A30U G46U A47G A60G C69A A89U as the variant, how does the “polymerase ribozyme fitness (log ratio)” value read?
A: ≤ -4.2

Q: Which “polymerase ribozyme fitness (log ratio)” value does the source give for A30U G46U U55A G59A A91G G140A here?
A: ≤ -4.2

Q: Which “polymerase ribozyme fitness (log ratio)” value does the source give for A30U G48C here?
A: ≤ -4.2

Q: With A30U G48C C51A C76A A107U A115C C116U G143A as the variant, how does the “polymerase ribozyme fitness (log ratio)” value read?
A: ≤ -4.2

Q: With A30U G48C C51U A52G U77C A119U G124C G141C as the variant, how does the “polymerase ribozyme fitness (log ratio)” value read?
A: ≤ -4.2
